The other results are listed elsewhere or left out. Most values come without repeats; read them as rough.
Experiments:
Assay in all cases: cell count relative to DMSO control; melanoma cells; higher = more viable cells
Details in all cases: library dose: standard library concentration; 72 h
G361 = test system: G361
IPC-298 = test system: IPC-298
IST-MEL1 = test system: IST-MEL1
LOXIMVI = test system: LOXIMVI
MEL-HO = test system: MEL-HO
MeWo = test system: MeWo
RPMI7951 = test system: RPMI7951
RVH-421 = test system: RVH-421
SkMel28 = test system: SkMel28
SkMel2 = test system: SkMel2
SkMel30 = test system: SkMel30
SkMel5 = test system: SkMel5
UACC257 = test system: UACC257
UACC62 = test system: UACC62
WM115 = test system: WM115
WM1716 = test system: WM1716
WM1745 = test system: WM1745
WM3526 = test system: WM3526
LB2518-MEL = test system: LB2518-MEL
MZ2-MEL = test system: MZ2-MEL
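Further: cells treated in 1,536-well plates, then fixed and DAPI-stained, with nuclei counted from automated high-throughput microscope images.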

Molecule `O=C(Nc1cc(C(F)(F)F)cc(C(F)(F)F)c1)c1cc(Cl)ccc1O` + Cn1c(Nc2ccc(C(F)(F)F)cc2)nc2cc(Oc3ccnc(-c4ncc(C(F)(F)F)[nH]4)c3)ccc21 [CHIR265] (first compound 0.08 µM, partner dose 0.4 µM) has a cell count (G361) of 28%, a cell count (IPC-298) of 40.9% and a cell count (IST-MEL1) of 85.8%. It also gave a cell count (LOXIMVI) of 98.2%, a cell count (MEL-HO) of 68.4% and a cell count (MeWo) of 80.4%. The cell count (RPMI7951) was 68%, the cell count (RVH-421) was 42% and the cell count (SkMel28) was 43.3%. It also gave a cell count (SkMel2) of 47.4%, a cell count (SkMel30) of 75.1% and a cell count (SkMel5) of 37.6%. It also gave a cell count (UACC257) of 83.1%, a cell count (UACC62) of 46.6% and a cell count (WM115) of 42.3%. It also gave a cell count (WM1716) of 66.2%, a cell count (WM1745) of 58.8% and a cell count (WM3526) of 48.5%.

`O=C(O)[C@@H]1[O][Sb](=[O])([O][Sb]2(=[O])[O][C@H]([C@H](O)CO)[C@H](O)[C@H](C(=O)O)[O]2)[O][C@H]([C@H](O)CO)[C@@H]1O` (some centres not stated) [stibogluconate] + COc1ccc(COc2ccc(Cc3cnc(N)nc3N)cc2OC)cc1 [GW2580] (first compound 10 µM, partner dose 5 µM) showed a cell count (G361) of 74.3%, a cell count (IPC-298) of 92.3% and a cell count (IST-MEL1) of 85.6%. The cell count (LB2518-MEL) was 87.2%, the cell count (LOXIMVI) was 97.2% and the cell count (MEL-HO) was 88.3%. For the same molecule, the cell count (MZ2-MEL) was 94.2%, the cell count (MeWo) was 92.1% and the cell count (RPMI7951) was 81.2%. The cell count (RVH-421) was 108%, the cell count (SkMel28) was 75.3% and the cell count (SkMel2) was 81.6%. The cell count (SkMel30) was 125%, the cell count (SkMel5) was 73.6% and the cell count (UACC257) was 73.3%. The cell count (UACC62) was 100%, the cell count (WM115) was 85.5% and the cell count (WM1716) was 72.7%. It also gave a cell count (WM3526) of 79.7%.

`O=C(O)c1ccc2c(c1)nc(Nc1cccc(Cl)c1)c1ccncc12` + C=CCn1c(=O)c2cnc(Nc3ccc(N4CCN(C)CC4)cc3)nc2n1-c1cccc(C(C)(C)O)n1 [MK1775] (first compound 2 µM, partner dose 0.1 µM) gave a cell count (G361) of 57%, a cell count (IPC-298) of 66.2% and a cell count (IST-MEL1) of 56.7%. The cell count (LOXIMVI) was 38.4%, the cell count (MEL-HO) was 57.6% and the cell count (MeWo) was 89.1%. It also gave a cell count (RPMI7951) of 35.4%, a cell count (RVH-421) of 65.5% and a cell count (SkMel28) of 41.8%. For the same molecule, the cell count (SkMel2) was 63.4%, the cell count (SkMel30) was 55.8% and the cell count (SkMel5) was 51.5%. The cell count (UACC257) was 64.4%, the cell count (UACC62) was 66.3% and the cell count (WM115) was 67.8%. The cell count (WM1716) was 79.6%, the cell count (WM1745) was 57.4% and the cell count (WM3526) was 63.9%.

Molecule `O=C(Nc1cc(C(F)(F)F)cc(C(F)(F)F)c1)c1cc(Cl)ccc1O` + Cn1cc(/C=C2\C(=O)Nc3cccnc32)c2ccccc21 [GW441756] (first compound 0.08 µM, partner dose 2 µM) has a cell count (G361) of 108%, a cell count (IPC-298) of 85.8% and a cell count (IST-MEL1) of 98.5%. For the same molecule, the cell count (LOXIMVI) was 88.5%, the cell count (MEL-HO) was 84.8% and the cell count (MeWo) was 94%. The cell count (RPMI7951) was 76.1%, the cell count (RVH-421) was 109% and the cell count (SkMel28) was 122%. For the same molecule, the cell count (SkMel2) was 110%, the cell count (SkMel30) was 117% and the cell count (SkMel5) was 84.5%. For the same molecule, the cell count (UACC257) was 91.4%, the cell count (UACC62) was 89% and the cell count (WM115) was 104%. It also gave a cell count (WM1716) of 93.3% and a cell count (WM3526) of 123%.

Work on `O=C(Nc1ccccc1)c1cc([N+](=O)[O-])ccc1Cl` + O=S(=O)(c1ccccc1)N(CC(F)(F)F)c1ccc(C(O)(C(F)(F)F)C(F)(F)F)cc1 [T0901317] (first compound 10 µM, partner dose 7 µM) yielded a cell count (G361) of 68.2%, a cell count (IPC-298) of 75.2% and a cell count (IST-MEL1) of 90.7%. The cell count (LOXIMVI) was 82.1%, the cell count (MEL-HO) was 79.3% and the cell count (MeWo) was 70.9%. The cell count (RPMI7951) was 91.3%, the cell count (RVH-421) was 63.4% and the cell count (SkMel28) was 42.8%. For the same molecule, the cell count (SkMel30) was 75.1%, the cell count (SkMel5) was 62.4% and the cell count (UACC257) was 67.8%. The cell count (UACC62) was 70.6%, the cell count (WM115) was 81.4% and the cell count (WM1716) was 99.3%. It also gave a cell count (WM1745) of 58.1% and a cell count (WM3526) of 65.8%.

`O=C(O)c1ccc2c(c1)nc(Nc1cccc(Cl)c1)c1ccncc12` + Oc1nc(-c2ccc(C(F)(F)F)cc2)nc2c1CSCC2 [XAV939] (first compound 2 µM, partner dose 10 µM) was tested, and the cell count (G361) was 69.6%, the cell count (IPC-298) was 75.3% and the cell count (IST-MEL1) was 91.6%. It also gave a cell count (LB2518-MEL) of 102%, a cell count (LOXIMVI) of 92.9% and a cell count (MEL-HO) of 63.6%. For the same molecule, the cell count (MZ2-MEL) was 70.4%, the cell count (MeWo) was 85.9% and the cell count (RPMI7951) was 70.3%. It also gave a cell count (RVH-421) of 75.1%, a cell count (SkMel28) of 85.2% and a cell count (SkMel2) of 83.9%. The cell count (SkMel30) was 76.1%, the cell count (SkMel5) was 67.4% and the cell count (UACC257) was 88.7%. For the same molecule, the cell count (UACC62) was 82.7%, the cell count (WM115) was 99.6% and the cell count (WM1716) was 69.1%. The cell count (WM3526) was 83%.

For `O=C(O)[C@@H]1[O][Sb](=[O])([O][Sb]2(=[O])[O][C@H]([C@H](O)CO)[C@H](O)[C@H](C(=O)O)[O]2)[O][C@H]([C@H](O)CO)[C@@H]1O` (some centres not stated) [stibogluconate] + Cn1cncc1[C@@](N)(c1ccc(Cl)cc1)c1ccc2c(c1)c(-c1cccc(Cl)c1)cc(=O)n2C [tipifarnib] (first compound 10 µM, partner dose 0.05 µM), the cell count (G361) was 92.9%, the cell count (IPC-298) was 92.5% and the cell count (IST-MEL1) was 84%. It also gave a cell count (LOXIMVI) of 79.9%, a cell count (MEL-HO) of 104% and a cell count (MeWo) of 89%. It also gave a cell count (RPMI7951) of 60.5%, a cell count (RVH-421) of 89.7% and a cell count (SkMel28) of 79.9%. It also gave a cell count (SkMel2) of 80%, a cell count (SkMel30) of 84.8% and a cell count (SkMel5) of 71%. For the same molecule, the cell count (UACC257) was 107%, the cell count (UACC62) was 82.1% and the cell count (WM115) was 80.5%. For the same molecule, the cell count (WM1716) was 68%, the cell count (WM1745) was 113% and the cell count (WM3526) was 85.8%.

`O=C(Nc1cc(C(F)(F)F)cc(C(F)(F)F)c1)c1cc(Cl)ccc1O` + C=CCn1c(=O)c2cnc(Nc3ccc(N4CCN(C)CC4)cc3)nc2n1-c1cccc(C(C)(C)O)n1 [MK1775] (first compound 0.08 µM, partner dose 0.1 µM) was tested, and the cell count (G361) was 83.9%, the cell count (IPC-298) was 97.1% and the cell count (IST-MEL1) was 99.3%. It also gave a cell count (LOXIMVI) of 92.5%, a cell count (MEL-HO) of 88.5% and a cell count (MeWo) of 79%. For the same molecule, the cell count (RPMI7951) was 78.8%, the cell count (RVH-421) was 91.1% and the cell count (SkMel28) was 60.4%. For the same molecule, the cell count (SkMel2) was 95.2%, the cell count (SkMel30) was 84.1% and the cell count (SkMel5) was 64.4%. The cell count (UACC257) was 82.5%, the cell count (UACC62) was 52.8% and the cell count (WM115) was 107%. It also gave a cell count (WM1716) of 96.6%, a cell count (WM1745) of 80% and a cell count (WM3526) of 85.7%.

Work on `O=C(O)[C@@H]1[O][Sb](=[O])([O][Sb]2(=[O])[O][C@H]([C@H](O)CO)[C@H](O)[C@H](C(=O)O)[O]2)[O][C@H]([C@H](O)CO)[C@@H]1O` (some centres not stated) [stibogluconate] + Nc1ncn([C@H]2C[C@H](O)[C@@H](CO)O2)c(=O)n1 [decitabine] (first compound 10 µM, partner dose 0.5 µM) yielded a cell count (G361) of 87.6%, a cell count (IPC-298) of 54.5% and a cell count (IST-MEL1) of 72.8%. For the same molecule, the cell count (LOXIMVI) was 92.7%, the cell count (MEL-HO) was 86.6% and the cell count (MeWo) was 70.7%. The cell count (RPMI7951) was 110%, the cell count (RVH-421) was 98.5% and the cell count (SkMel28) was 115%. For the same molecule, the cell count (SkMel2) was 106%, the cell count (SkMel30) was 125% and the cell count (SkMel5) was 80.8%. For the same molecule, the cell count (UACC257) was 107%, the cell count (UACC62) was 76% and the cell count (WM115) was 64.8%. The cell count (WM1716) was 82.5%, the cell count (WM1745) was 78.4% and the cell count (WM3526) was 108%.

Source: the supplement of paper PMC4604168 (melanoma cell lines)
